Assay results from the supplement of paper PMC3334620.
Over roughly 33,000 sequences, “E-score (-0.5 to 0.5)” has its median near -0.016; the highest 2% begin near 0.31. The list shows a part of the results.

The sequences below were run against Cst6 (UniProt P40535) (assay: PBM E-score (8-mer binding enrichment) (E-score (-0.5 to 0.5)); higher = stronger / more preferred TF binding; most listed sequences are background and not binding sites). Conditions: protein concentration: 200 nM; construct: GST-DNA-binding domain.
Method in brief: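 Detection of bound protein used fluorescent anti-GST, with scans normalised by masliner. The proteins were GST-tagged yeast transcription factors applied at about 100-200 nM to universal all-10-mer Agilent arrays made double-stranded by primer extension. Each ungapped eight-base word, pooled with its reverse complement, was scored with an E-score from the Universal PBM Analysis Suite.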

Sequence | PBM E-score
CACTGTTA | 0.0044
CCCCGCCG | -0.199
GAGTTGTA | 0.0413
CATTAACA | 0.137
CGACTGAG | -0.218
AGTGGAAT | -0.0194
ATAACTTA | 0.22
AAATTGTT | 0.227
CCACGCAC | 0.0591
ATATGGTC | -0.0011
ATCTGCCA | -0.149
CTCGCTTA | 0.0386
CTGACCTA | -0.0164
GGAGGGCC | -0.309
ACCACACA | 0.0846
ACAGCTGC | -0.0617
ATAACCTG | -0.122
ATGATTGA | 0.182
AAGTCGCA | 0.022
CCATAAGC | -0.214
AGACGGCA | 0.191
ATGGCGCC | 0.0258
AATCGCGA | 0.0502
TATGTCAA | 0.378
CCGATCCG | -0.0955

Sequence | PBM E-score
ATACCTCG | -0.0186
CCTATCGC | -0.109
AAGCGGGC | -0.316
GATTGACA | 0.123
AGGGTCTG | -0.333
AGTCTAAT | 0.063
CAGACCAG | -0.181
CCTGTGCA | -0.255
AGACATTC | -0.00845
CCAAAGAA | 0.114
AGAGCGCC | 0.1
AGTACCGA | -0.0823
GCCACAAC | 0.0583
CCACAGGC | -0.258
AGCCATCG | -0.0967
GACTGATC | -0.0497
AAGCCCGC | -0.108
ACGAGCCA | -0.0129
GATTGACC | -0.104
ACTCGACC | -0.22
ATAGATAA | 0.16
CACTGTAG | 0.237
CAGCACTG | -0.0109
GGCAAGGA | -0.0742
CCGGTAAA | -0.0305

Sequence | PBM E-score
AAGAGAGC | -0.204
AGGGATCG | -0.186
CACCTCAG | -0.149
CAAGGCCA | -0.156
CGTGAGGC | 0.0522
GGCGGGAA | 0.00251
ACGACTAT | 0.107
CTCATCCC | -0.19
ACCGCCCT | -0.164
CAGATTGC | -0.0228
TGGATACA | -0.0309
AAAGTAAG | 0.0662
CATCGGGC | -0.171
ACGACTAA | -0.0125
GCCAGCAA | -0.15
CCCGTTGA | -0.0143
GGCGGACC | -0.373
CTAAACAC | 0.0664
CGCCGACG | -0.00344
ACACCCCC | -0.365
GTGGGAAC | -0.221
GGCGCCAC | -0.0013
CAGCTTCC | -0.149
CATCGATA | 0.138
ATCGTAAC | 0.163

Sequence | PBM E-score
ACGGTGGG | -0.0915
CGGTACCG | -0.0828
GGCTTTTA | -0.0345
GCTGGTCC | -0.241
AATATGTC | 0.319
CGCGAGGA | -0.153
ACTTGTAA | 0.146
AAATAAGC | 0.0943
CACGGTCG | -0.373
TCTAGGCA | -0.198
CTGTCTAA | 0.0558
TCCAAGCA | -0.209
GATTCCGC | 0.0949
CGAAAAGC | -0.1
CCATTCGC | -0.234
TGTCGTAA | 0.303
CCCGTGTC | -0.15
CAGAGGAA | -0.158
ATTTAGTC | 0.209
GCCAACTA | -0.00854
CCGTAAGG | -0.113
GTTAGATA | 0.0758
CACATGCC | 0.0128
ACTCGCAT | 0.151
CTTGGGGA | -0.148

Sequence | PBM E-score
AGTAAAGG | 0.0518
AGAGGTGG | -0.0943
CACGCGAG | -0.0452
GAGCAGAC | 0.00076
TGACAACA | 0.346
ACTAGGCC | -0.356
ATTAAACA | 0.125
AATATCTA | 0.0899
GGTGACGA | 0.463
CAGCTCCC | -0.251
GAACCTCC | -0.249
CACCTCAA | 0.0981
ATGACATC | 0.478
CCCTAGGG | -0.233
CTTGCCAA | -0.0495
TTCAGGAA | -0.00723
AAAGACCA | -0.231
GGAACCTA | -0.104
ACTGAATG | 0.0705
CGCCTACG | 0.0141
TGACCAAA | 0.168
ATTAGGCG | 0.204
AATAATCT | 0.152
ATGAACGA | 0.169
TGCGGCAA | 0.19

Sequence | PBM E-score
GTAACCAC | -0.0805
CATACTTC | 0.0315
CTTCCTTC | -0.24
AGAAAGAT | 0.207
CTATGCTC | -0.217
ATTAGGGA | -0.175
AAACGCTG | -0.0466
AAGGTGTC | -0.014
ACGGTAGT | -0.143
AATAGGGG | -0.0553
CGCAGGAG | -0.0924
GCCCACAC | -0.134
ATGTGCAG | -0.081
CCTAGGGC | -0.266
ATTATTAC | 0.339
CATGAATG | 0.177
ATATCATG | 0.19
CCTTCTAA | -0.00398
CGAATACA | 0.0401
ATGCAGAA | 0.148
GCAGTAAA | 0.0152
AGTTTTCC | 0.0828
AGCTTAAC | -0.0797
GCTGGCTA | -0.283
CCAGCGGG | -0.0814

Sequence | PBM E-score
AAAACACG | 0.0517
ATATGTAG | -0.0318
AGCTTCTC | -0.136
GGTGGCGA | -0.11
CACATACC | -0.0713
GAACTTAC | 0.125
GTCACGAA | 0.298
CGGACAAA | 0.1
AGTCGGTC | -0.28
AATGTTAC | 0.0999
CGGTCTTA | -0.2
AAAACGGC | 0.222
CGGAACAA | 0.0367
CGTGGGCC | -0.228
AGCAAAAT | 0.0787
CTGGACGA | -0.299
ATCTTGAA | 0.0326
AGGGTACA | -0.0757
ACAGGGTC | -0.231
CGTCTTAA | 0.0809
GTTTATGA | 0.18
CTCTGGCA | -0.221
CTTTTACC | 0.083
TTCTTCAA | 0.168
AATCAGCC | -0.113

Sequence | PBM E-score
TAAGATAA | 0.159
CTGTTGTC | 0.147
CAGTGAGA | 0.017
TCCAAACA | -0.0477
CGCTTTTC | -0.0543
GACAAGAC | -0.124
AACGTTGT | -0.0165
CGAAGACG | -0.159
CGATGTGA | -0.0315
ATACCTGG | -0.368
CCCAGAGA | -0.159
AATATACC | 0.111
ACCATACC | -0.227
CATGTGTC | -0.0104
ACGAGGAG | 0.0201
AAGTGGGC | -0.0164
AAAAGTTT | 0.144
CGACCTCA | 0.0422
CCCTACGA | -0.161
ATGAACCA | 0.147
ATCAGCAT | 0.211
CCGTGGAA | 0.0459
CCTGGCAG | -0.132
CCCTAACC | -0.235
TATGCTGA | 0.143

Sequence | PBM E-score
ACTGCAAA | 0.0571
TGCGAGAA | -0.0601
CCTACTAA | -0.136
ACTTATCG | -0.181
CCGGTTCC | -0.24
CGAGCCCG | -0.126
CAACATTA | 0.226
ATACCAAG | 0.0992
ACGTCGAC | 0.179
ACCACTCT | -0.182
ACTCCTAC | -0.225
AGACTCGG | -0.297
CTGCCCAC | -0.227
GCATAAGC | 0.115
GTCAGCTA | -0.0597
GTATGGCA | 0.0485
CAGTATCA | 0.148
ATGCCACG | 0.00475
CAGTTCAC | 0.0141
